Results as given in the supplement of paper PMC11417369.
The list shows a part of the results.

Each sequence was assayed on PfHDP1 homeodomain (GST-tagged) (assay: gcPBM binding intensity (ln(normalized median fluorescence intensity)); higher = stronger DNA binding).
Procedure, shortened: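 Binding intensity is the highest Masliner-normalised natural-log median intensity over replicate spots in either probe orientation. To obtain it, GST-tagged P. falciparum DNA-binding domains made in E. coli were incubated for 1 h on an Agilent 4 × 180k array of primer-extended double-stranded 36-bp intergenic genomic probes plus negative controls. Detection used Alexa488 anti-GST antibody with scanning at 488 nm.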

In order of falling “gcPBM binding intensity (ln)” value:
1. ATATAAATACGGTGTGCACACACATAATATATATAT [CACACA_site2271]  11.1
2. TATACGAAATTGTGCACACATATATTTATGTATGTA [CACACA_site1509]  11
3. AATGCTATCATTAATGCACACATTTAAACTTAATAT [CACACA_site5878]  10.6
4. TTAAAAGAATATAATGCACACATTATTTTATTTTAT [CACACA_site3772]  10.4
5. TAATATATAACGTGCACACACACATTTACGTATGAA [CACACA_site1832]  9.89
6. CAAGAAAATGGACACACACACATATATATATATATA [CACACA_site6010]  9.4
7. TACAATTGTAAAGGCGCACACATATATATATATATA [CACACA_site1392]  9.36
8. ATAATAAAACTCAAAGTGCATTAGAATAATTGTAAA  8.11
9. GATATTATTGCATATTTACACACGTACTAATTTAAA [CACACA_site8231]  7.82
10. ACAATAAATATGTGGTTGCACTTATAATATATTTAT  7.26
11. TACCCACGTATATATATACACACTAATATACACCCA [CACACA_site9381]  7.22
12. AAATAAAGTAAAATATGTACATAAATTAAAACACAT [XGTACX_site8539]  7.19
13. CATACATACAGACACACACACATATTTATATTTATA [CACACA_site6172]  7.11
14. ATTTATATATAATTTTGTACGAAAAAAATAAGGTAT [XGTACX_site3578]  7.08
15. TTTTTTTTTGCCTACTGTACTATTTTTGAGCTCACC [XGTACX_site7967]  7.06
16. TATATATTTATTAAATGTACATAACAAAAATGGTAT [XGTACX_site3577]  7.05
17. TTAAATGAAAAAATATGTACGTATAATAAGAAATAT [XGTACX_site6619]  6.97
18. TACACCCTATTTTTATGTACTTATTTGATTTACACA [XGTACX_site8172]  6.91
19. TGTATACGCATATGTACACACATATATATGTATATG [CACACA_site3087]  6.91
20. TATTTTTTCTTAAACACACACATATATATATAGAAT [CACACA_site2836]  6.85
21. AAAAAAAAAAAAAAAAAAAAATTTCAATTATATTGA [GTGCAC_negctrl_site642]  6.82
22. AAAAAAAACGAACACACACACATACAAAATCTATAT [CACACA_site6795]  6.78
23. TCCCTTAATTTTGTGTGTACATATAATATATTTTTA [XGTACX_site2789]  6.76
24. ATAGAAAGTGACAATTGTACATACATATTATATATA [XGTACX_site4390]  6.74
25. TTTGTTTTAAATATTATACACACGTAAAAGTAGAAT [CACACA_site214]  6.73
26. AAAAGATTTATACATACACACATATTATAGTCACAT [CACACA_site7701]  6.71
27. GGAAACCTTTTTTTTACACACAATATATTAATACTT [CACACA_site1403]  6.7
28. TATAACGCTTGCAGCTGTACAAAAATAATCAAACTG [XGTACX_site2464]  6.67
29. AGCACCCACCAACACACACACACACCCACCCACCCA [CACACA_site8011]  6.61
30. GTTAATTATTAAATTTGTACTCATATATATTATATA [XGTACX_site6862]  6.6
31. TTTTTATAATAAAAAAATATAACTATATTAAGCCAC [CACACA_negctrl_site555]  6.59
32. ATTCATAAATATATTTGTACATATTATATATAAATA [XGTACX_site1907]  6.57
33. AATACATAATAACATGTACACACATTCTTCTATAAA [CACACA_site9344]  6.57
34. TTTTTTCTTAGTTATACATGCAAAATAAATAAATAA [TGCATGCA_site410]  6.53
35. TTTTTTTTTTTGTTCACACATATACTTTTATTTTGG [CACACA_site4250]  6.5
36. GTGTAATTATCAGCATAAATATGGTACATACATAAA [CACACA_negctrl_site323]  6.47
37. CAAATTTAAAAAAAATCACACACAGAAAAAAAAAAA [CACACA_site8728]  6.44
38. AAAATTATAATATATACACACATATATATATTAAAT [CACACA_site473]  6.44
39. TGCATACATAAATGTATATATTAATATATATCATAT [GTGCAC_negctrl_site252]  6.32
40. TTCTTGGAATACAAGTGTACTTTATTATTATTATTA [XGTACX_site5997]  6.32
41. GTATGAGTCGTAGAGTGTACTCTGGAGAAAACTACA [XGTACX_site4942]  6.25
42. CACAGTGATATAAAAACACACATGAATTAAAATTTC [CACACA_site4999]  6.12
43. AAGAACTCATTAATAATGTAATATTTTATAATTTAG [CACACA_negctrl_site321]  5.97
44. TATACATATTTCTATTGTACATAAACTAAATCTTCA [XGTACX_site28]  5.94
